The text below walks through data of ChEMBL document CHEMBL1157539, “Thousands of chemical starting points for antimalarial lead identification” (Nature, 2010).

The full ranking holds about 13,000 compounds; the median of “IFI” is about 4, and the highest 2% start at about 17. This is one part of the list.

The nature of the test: GSK_TCMDC: Inhibition Frequency Index (IFI). The number of non-kinase HTS assays where a compound showed > 50 % inhibition, expressed as a percentage of the number of such assays in which the compound was tested (-0 is zero). The format is functional.
On to `Cn1cc(C2CCN(CCCCNC(=O)c3ccc(C(=O)Nc4ccc(C#N)cc4)cc3)CC2)c2ccccc21`, for which the IFI stood at 3.57%.

With `O=C(Cn1c(=O)cnc2ccccc21)Nc1cccc(C(=O)Nc2cccc(C(F)(F)F)c2)c1`, the IFI turned out to be 0%.

`O=C(NC1CCC(CCN2Cc3ccc(Br)cc3C2)CC1)c1cccc(-c2cccnc2)c1` (configuration not stated): the IFI turned out to be 2.16%.

The compound `Cc1n[nH]c2cc(F)c(-c3cc(OC[C@@H](N)Cc4ccccc4)cnc3-c3ccoc3)cc12` registered an IFI of 11.9%.

As to `O=C(Nc1ccc(Cl)cc1)Nc1ccc(-c2cccc(-c3nc4cc(F)ccc4[nH]3)c2)cc1`, the IFI was 4.04%.

Regarding `CCOc1ccc2nc3cc([N+](=O)[O-])ccc3c(N)c2c1`, the IFI came to 6.34%.

In turn, `CCN(CC)CCCNc1ncc2c(-c3ccc(NC(=O)Nc4cc(C(F)(F)F)ccc4F)c(F)c3)nn(C)c2n1` showed an IFI of 12.9%.

In turn, `COc1ccc(Cl)cc1N1CCN(CCCNC(=O)c2ccc(-c3nc4c(C)cccc4[nH]3)s2)CC1` came in with an IFI of 1.5%.

In the case of `Cn1c(=O)c2nc(-c3ccc(Cl)cc3)nnc2n(CCCC#N)c1=O`, the IFI was -0%.

For `CC(C)n1ncc2c(C(=O)N3CCCCCC3)cc(-c3ccccc3)nc21`, the IFI stood at 1.49%.

The compound `CC(=O)Nc1ccc(OCCN(Cc2ccccc2OC(F)(F)F)c2ccc(C(F)(F)F)c(C#N)c2)c(Cl)c1` gave an IFI of 0%.

In turn, `CCCCCCN1CCN(Cc2cccc(NC(=O)c3cc4ccccc4s3)c2)CC1` had an IFI of 4.79%.

Compound `Cc1ccc(Nc2nccc(NCC(O)c3cccc(C(F)(F)F)c3)n2)cc1` (configuration not stated) came in with an IFI of 17.9%.

As for `CCC[C@@H]([C@@H](CC1CCC(C)CC1)C(=O)N[C@@H](CCCCNC(=O)c1ccccn1)C(=O)Nc1nccs1)N(O)C=O` (some centres not stated), the IFI came out at 4.76%.

As to `Cc1ccccc1C1CCN(C2CCC(NC(=O)c3ccc4c(c3)-c3nocc3C(C)O4)CC2)CC1` (configuration not stated), the IFI is 10.2%.

With `O=C(/C=C/c1ccc(Cl)c(Cl)c1)N1CCC(CN2CCC(c3c[nH]c4ncccc34)CC2)CC1`, the IFI is 2.34%.

Compound `COc1cc(C=CC(=O)N2CCC(CCN3CCC(c4c[nH]c5ccccc45)CC3)CC2)cc(OC)c1` registered an IFI of 6.43%.

On to `CS(=O)(=O)CCNCc1nc(-c2ccc3c(Nc4ccc(Oc5ccccn5)cc4)ccnc3c2)cs1`, for which the IFI worked out at 2.94%.

In turn, `Cc1cc(NC2CCN(Cc3ccccc3)CC2)nc(NCCCCc2ccccc2)n1` registered an IFI of 10.6%.

For the compound `N#Cc1ccc(N/C(=N\c2cccc(Cl)c2Cl)NCc2ccc(Cl)cc2Cl)c(O)c1`, the IFI amounted to 5.8%.

`O=C(Nc1ccc(CN2CCN(S(=O)(=O)c3ccc(Cl)s3)CC2)cc1)c1cccs1` showed an IFI of 2.29%.

As to `Cc1ccc(Cl)c2sc(N3CCN(C(=O)c4ccc([N+](=O)[O-])o4)CC3)nc12`, the IFI is 6.54%.

Turning to `O=S(=O)(Nc1cccc(CCN2CCC(N3CCCCC3)CC2)c1)c1ccc(-c2ccccc2)cc1`, the IFI amounted to 9.68%.

`CC(C)NCc1cccc(-c2ccc(NC(=O)c3ccc(C#N)cc3)cc2)c1` came in with an IFI of 0.98%.

For `O=C(Nc1cccc(CN2CCCN(Cc3ccc(O)cc3)CC2)c1)c1ccc2ccccc2n1`, the IFI was 3.08%.

`CC(=O)Nc1nc(C(=O)Nc2ccc(-c3ccc(-c4nc5cccc(C)c5[nH]4)cc3)cc2)cs1`: the IFI was 5.17%.

Compound `N#Cc1cccc(C(=O)Nc2ccc(-c3cccc(CN4CCCC4)c3)cc2)c1` gave an IFI of 3.96%.

Regarding `O=C(Nc1ccc(C(F)(F)F)cc1)NC1CCN(c2ccnc3cc(Cl)ccc23)C1` (configuration not stated), the IFI stood at 4.41%.

`COc1ccc(Nc2nccc(N3CCC(NC(=O)c4cc5ccccc5s4)C3)n2)cc1` (configuration not stated) showed an IFI of 4.55%.

With `CN(C)CCN(C)Cc1ccc(-c2cccc(NC(=O)c3cccc(C#N)c3)c2)cc1`, the IFI turned out to be 1.92%.

In the case of `O=C(Nc1ccc(Oc2ccccc2)cc1)N(CCN1CCCC1)Cc1ccc(-c2ccc(CN3CCNCC3)cc2)cc1`, the IFI amounted to 8.84%.

For `FC(F)(F)c1cc(Nc2ncnc3ccc(Br)cc23)ccc1OCc1ccccc1`, the IFI turned out to be 2.19%.

The compound `CCCCCCCN1CC[C@@H](CCCc2ccnc3ccc(OCCC4CCNCC4)cc23)[C@@H](CC)C1` came in with an IFI of 10.9%.

In the case of `Cc1ncc(CN2CCC(C(=O)Nc3ccc(-c4nc5ccccc5o4)cc3)CC2)s1`, the IFI is -0%.

Compound `O=C(Cc1ccc(Nc2nccc(Nc3cccc4[nH]ncc34)n2)cc1)Nc1ccc(C(F)(F)F)cc1` returned an IFI of 10%.

In turn, `CCN(Cc1cccc2ccccc12)c1ccc2nc(N)nc(N)c2c1` gave an IFI of 13.3%.

Compound `Cc1cc(NC(=O)c2ccco2)ccc1OC1CCN(Cc2ccc(C#N)cc2)CC1` came in with an IFI of 1.59%.

Consider `Cc1ccccc1C1CCN(C2CCC(NC(=O)/C=C/c3c[nH]c4ccccc34)CC2)CC1` (configuration not stated), for which the IFI is 7.14%.

In the case of `COc1ccc(-c2cccc(NC(=O)c3cccc(C#N)c3)c2)cc1CN1CCCN(C)CC1`, the IFI worked out at 5.88%.

The compound `c1ccc(CN2CCC(NCc3ccc(-c4ccc(CNC5CCCC5)cc4)cc3)CC2)cc1` had an IFI of 4.17%.

For the compound `CN(C)CCN1CCN(Cc2cccc(-c3csc(-c4nc5ccccc5[nH]4)c3)c2)CC1`, the IFI was 9.33%.

Turning to `CCCN1CC[C@@H](CCCc2ccnc3ccc(O)cc23)[C@@H](CC)C1`, the IFI is 1.41%.

Compound `COc1ccc2[nH]c(C)cc(=NN=Cc3ccc(F)cc3)c2c1` had an IFI of 3.01%.

In turn, `Cc1ccc(-n2cc(CNCCc3nc(C)c[nH]3)c(-c3ccc(F)cc3)n2)cc1` registered an IFI of 13.6%.

`O=C(Nc1cccc(C(F)(F)F)c1)Nc1ccc(F)c([N+](=O)[O-])c1` showed an IFI of 15.8%.

`OCC1CCN(Cc2ccc(-c3ccc(-c4nc5cc(F)ccc5[nH]4)cc3)cc2)CC1` gave an IFI of 2.94%.

`CCN(CCCN1CCCCC1)c1cc(C)nc(Nc2ccc(C)cc2Cl)n1` came in with an IFI of 2.56%.

On to `Cc1nc(-c2cccc(Nc3nccc(NCC(O)c4ccc(C(F)(F)F)cc4)n3)c2)cs1` (configuration not stated), for which the IFI is 12%.

In turn, `CCCC(C)Nc1nc(C)cc(N[C@@H](Cc2ccccc2)C(=O)NCCOc2ccccc2)n1` (some centres not stated) returned an IFI of 9.09%.

`C#CCOc1ccccc1CN1CCC(N2CCc3cc(NC(=O)c4cc(C)on4)ccc32)C1` (configuration not stated) showed an IFI of 0%.

`COc1ccc2[nH]c(C)cc(=NN=Cc3ccccc3Cl)c2c1` came in with an IFI of 1.5%.

Consider `Cc1cnc(C(=O)Nc2cccc(-c3ccc(-c4nc5cc(F)ccc5[nH]4)cc3)c2)cn1`, for which the IFI stood at 4.46%.

As for `Cc1[nH]c(C)c(-c2ccc(-c3ccccc3Cl)nc2)c(=O)c1Cl`, the IFI was determined as 0%.

As for `CCNc1cc(C(=O)N[C@@H](Cc2ccc(F)c(F)c2)[C@H](O)CNCc2cccc(OC)c2)cc(N2CCCCS2(=O)=O)c1`, the IFI amounted to 3.57%.

Compound `Clc1ccc(C=NNc2ccnc3cc(Cl)ccc23)cc1` yielded an IFI of 3.03%.

Regarding `COC(=O)CNC(c1ccccc1)c1cc(Br)ccc1NC(=O)c1ccccc1Br` (configuration not stated), the IFI was 0.76%.

As to `CO/C(=C\C=C\c1cc2cc(Cl)c(Cl)cc2[nH]1)C(=O)NCCCN(C)CCN(C)c1ccccc1`, the IFI is 10%.
